Data: PubChem BioAssay (NCI)
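Following 48 hours of exposure in 96-well plates, responses at five concentrations were used to interpolate endpoints linearly. At the GI50, growth is halved. The concentration for full growth arrest is given as TGI.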

Tested on: NCI-H322M lung
Test: growth of human tumour cells (NCI), 48 h

| SMILES | GI50 [µM] | TGI [µM] |
| --- | --- | --- |
| Cc1ccc(C(=O)NC2CC2)cc1-c1ccc2[nH]ncc2c1 | > 25 | > 25 |
| CCOC(=O)C1=C(C)NC(c2ccco2)=C(C#N)C1c1cccc([N+](=O)[O-])c1 (stereo not given) | 0.0287 | – |
| C[CH2][Sn]([CH2]C)([O]C(=O)c1ccc(F)cc1)[O]C(=O)c1ccc(F)cc1 | 60.7 | > 100 |
| O=C1NC(c2ccccc2)C2(C(=O)O)CN(C3CC3)c3cc(N4CCNCC4)c(F)cc3C2N1 (stereo not given) | > 100 | > 100 |
| N#C/C(C(=O)NCc1ccccc1)=C(/N)N1CCCC1 | – | > 100 |
| CCn1c(-c2nonc2N)nc2c(N3CCCC3)nccc21 | 18.2 | > 25 |
| N#Cc1cc(S(=O)(=O)Nc2nc3ccccc3o2)c(SCc2ccccc2)cc1Cl | 32.1 | 75.6 |
| CCOC(=O)c1csc(NC(=O)CCN2CCN(C)CC2)n1 | – | > 100 |
| COCCNc1cncc(C(N)=O)c1 | – | > 100 |
| CSc1nc(Cl)c2c(n1)Sc1nc3ccccc3n1C2O (stereo not given) | – | 65.8 |
| CC1SC(c2ccc(Cl)cc2Cl)N(NC(=O)C(O)c2ccccc2)C1=O (stereo not given) | > 100 | > 100 |
| O=[N+]([O-])c1ccc(-c2csc(=[N+]3CCCCC3)s2)cc1 | – | > 100 |
| Cc1cc(-c2ccccc2)nc2oc(=O)n(C)c12 | – | > 100 |
| O=c1c2cc3ccccc3n2c(=O)c2cc3ccccc3n12 | – | > 100 |
